What was measured:
[1] = biological target: T1, humanized antibody Hz515H7 VH1 D76N VL2; assay: SPR (Biacore X): h-FcγRIIIA injected over hz515H7VH1D76NVL2 Mab immobilized on a CM4 sensorchip; heterogeneous ligand model, minor component (21%)
T1 construct: IgG1/kappa; also called hz515H7VL2; hz515H7-1
Experimental: (§1) 1964 RU of hz515H7VH1D76NVL2 Mab were immobilized using the amine coupling kit chemistry on the second flowcell (FC2) of a CM4 sensorchip. The first flowcell (FC1) activated by NHS and EDC mixture and des-activated by ethanolamine served as the reference surface to check and subtract the non specific interaction between the analyte (Fc gamma receptors) and the sensorchip matrix.
(§2) The kinetic experiments were carried out at 25° Celsius at a flow rate of 30 μl/min. The HBS-EP buffer was used either as the running buffer or for the preparation of analyte solutions. The analyte solutions were injected during 90 seconds (association phase) with a 90 seconds delay (dissociation phase). An injection of running buffer as analyte was used as a double reference. All the sensorgrams were corrected by this double reference sensorgram.
(§3) Sensorgrams obtained with h-FcγRIIIA [FIG. 16] were clearly not fitted by the Langmuïr model (Chi2/Rmax>20%). […] According to this model, the hz515H7VH1D76NVL2 Mab Fc domain may be regarded as a mixture of two components. […] According to the literature, the heterogeneity observed with h-FcγRIIIA was probably linked to the glycosylation heterogeneity on the Mab Fc domain.

chimeric antibody c515H7 [2] = biological target: T2, chimeric antibody c515H7; assay: SPR (Biacore X): h-FcγRIIIA injected over c515H7 Mab immobilized on a CM4 sensorchip; heterogeneous ligand model, major component (81%)
T2 construct: Human IgG1/kappa constant domains; also called c515H7 Mab; chimeric 515H7
Experimental: as §1, with “2017” for “1964”, “c515H7” for “hz515H7VH1D76NVL2”
as §2
(§4) After each injection of the analyte, the sensorchip was regenerated by injection of 20 mM NaOH, 75 mM NaCl solution.

chimeric antibody c515H7 [3] = biological target: T2, chimeric antibody c515H7; assay: SPR (Biacore X): h-FcγRIIIA injected over c515H7 Mab immobilized on a CM4 sensorchip; Langmuir model
Experimental: as §1, with “2017” for “1964”, “c515H7” for “hz515H7VH1D76NVL2”
as §2, §4

[4] = biological target: T1, humanized antibody Hz515H7 VH1 D76N VL2; assay: SPR (Biacore X): h-FcγRIIIA injected over hz515H7VH1D76NVL2 Mab immobilized on a CM4 sensorchip; heterogeneous ligand model, major component (79%)
Experimental: as §1, §2, §3

[5] = biological target: T1, humanized antibody Hz515H7 VH1 D76N VL2; assay: SPR (Biacore X): h-FcγRIIIA injected over hz515H7VH1D76NVL2 Mab immobilized on a CM4 sensorchip; Langmuir model
Experimental: as §1, §2
After each injection of the analyte, the sensorchip was regenerated by injection of either 20 mM NaOH solution after h-FcγRI and m-FcγRIII or 10 mM NaOH after h-FcγRIIIA and m-FcγRI.

chimeric antibody c515H7 [6] = biological target: T2, chimeric antibody c515H7; assay: SPR (Biacore X): h-FcγRIIIA injected over c515H7 Mab immobilized on a CM4 sensorchip; heterogeneous ligand model, minor component (19%)
Experimental: as §1, with “2017” for “1964”, “c515H7” for “hz515H7VH1D76NVL2”
as §2, §4

T2 sequence (heavy, as listed by the source, chain 1 of 2): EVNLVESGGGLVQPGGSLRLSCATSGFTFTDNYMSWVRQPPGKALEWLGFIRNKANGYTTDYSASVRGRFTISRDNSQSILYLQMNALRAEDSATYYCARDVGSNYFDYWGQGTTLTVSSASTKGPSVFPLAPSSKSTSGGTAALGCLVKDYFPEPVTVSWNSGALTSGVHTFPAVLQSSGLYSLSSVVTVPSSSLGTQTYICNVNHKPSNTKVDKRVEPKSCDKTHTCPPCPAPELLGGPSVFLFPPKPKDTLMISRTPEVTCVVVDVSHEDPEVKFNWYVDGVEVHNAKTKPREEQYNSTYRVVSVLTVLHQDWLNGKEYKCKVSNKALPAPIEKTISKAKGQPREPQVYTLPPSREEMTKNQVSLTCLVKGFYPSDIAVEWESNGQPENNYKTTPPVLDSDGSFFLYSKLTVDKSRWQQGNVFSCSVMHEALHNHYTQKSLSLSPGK
T2 sequence (light, as listed by the source, chain 2 of 2): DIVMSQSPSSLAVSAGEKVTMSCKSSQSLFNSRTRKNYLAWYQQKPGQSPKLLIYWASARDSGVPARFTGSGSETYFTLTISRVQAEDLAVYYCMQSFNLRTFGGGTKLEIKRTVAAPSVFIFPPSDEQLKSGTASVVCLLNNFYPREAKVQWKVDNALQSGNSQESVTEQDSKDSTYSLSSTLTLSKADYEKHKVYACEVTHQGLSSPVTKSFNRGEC
T1 sequence (heavy, as listed by the source, chain 1 of 2): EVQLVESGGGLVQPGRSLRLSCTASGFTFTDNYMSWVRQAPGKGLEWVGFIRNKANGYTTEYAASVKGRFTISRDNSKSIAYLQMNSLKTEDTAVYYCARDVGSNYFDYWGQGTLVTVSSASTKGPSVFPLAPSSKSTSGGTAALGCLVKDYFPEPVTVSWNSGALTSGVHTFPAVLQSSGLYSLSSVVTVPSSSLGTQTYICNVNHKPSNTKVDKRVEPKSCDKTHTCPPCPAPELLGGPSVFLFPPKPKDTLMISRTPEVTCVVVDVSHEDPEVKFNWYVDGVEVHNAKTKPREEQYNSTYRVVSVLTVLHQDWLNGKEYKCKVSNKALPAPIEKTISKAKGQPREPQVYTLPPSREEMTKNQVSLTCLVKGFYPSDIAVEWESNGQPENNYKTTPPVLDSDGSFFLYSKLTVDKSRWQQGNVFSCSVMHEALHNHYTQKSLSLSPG
T1 sequence (light, as listed by the source, chain 2 of 2): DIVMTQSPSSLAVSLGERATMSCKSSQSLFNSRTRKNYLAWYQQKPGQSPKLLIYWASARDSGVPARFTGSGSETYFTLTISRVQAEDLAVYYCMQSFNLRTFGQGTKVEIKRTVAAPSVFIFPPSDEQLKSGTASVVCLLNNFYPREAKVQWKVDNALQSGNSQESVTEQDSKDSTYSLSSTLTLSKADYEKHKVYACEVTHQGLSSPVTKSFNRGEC

B1: Recombinant human FcγRIIIA variant V [CD16a], […] with C-terminal 6-His tag (receptor)
chain: not shown
notes: range […]; 'variant V' is given without a position, so no substitution is written; also called h-FcγRIIIA
t1/2 [1]: 45 s | t1/2 (chimeric antibody c515H7 [2]): 3.6 s | t1/2 (chimeric antibody c515H7 [3]): 26.4 s | t1/2 [4]: 3.6 s | t1/2 [5]: 19.8 s | t1/2 (chimeric antibody c515H7 [6]): 55.8 s

Source: patent US20140120555A1 (PIERRE FABRE MEDICAMENT, published 2014)
